In the supplement of paper PMC10126150:
Values marked as one replicate rest on one cluster of the flow cell; about a third of the high ones do not repeat.

test system: ATP; test: switch fluorescence ratio, 500 uM ATP over buffer (Cy3 cluster intensity, sum of 5 cycles each) (fold (ratio)); higher = stronger signal-on switching upon ATP binding; sequences stand for … in TCGTCGGCAGCGTCAGATGTGTATAAGAGACAGTTTTTTTTTTTTTTTTTTTTTTTTT…TC; details: aptamer strand: ATP DNA aptamer (quencher-CACCTGGGGGAGTATTGCGGAGGAAGG + anchor), 100 nM annealed; ATP concentration: 500 uM; one replicate
Summary of the method: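 The fluorescence ratio divides summed target-cycle Cy3 intensity by summed buffer-cycle Cy3 intensity for each cluster and is averaged per switch-domain sequence. Cy3-labelled switching-strand clusters on a modified Illumina MiSeq flow-cell were annealed to 100 nM quencher-labelled ATP aptamer, then imaged in selection buffer and again after 15 min with 500 uM ATP at 22 °C. Five such cycles were run, with NaOH stripping and re-annealing between them, and clusters outside 100-1000 RFU were excluded.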
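Also: ATP exposure 15 min at 22 °C before imaging.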

Row | Sequence | switch fluorescence ratio
1 | TCCATTTTTA | 1.03
2 | GAGATTATTT | 1
3 | GGAAATATCT | 0.993
4 | ACATTCCTAT | 1.06
5 | GTAGTGAACT | 0.99
6 | TCATTGCCTT | 1.03
7 | CATGGGCCCC | 0.956
8 | GCTTGTAACC | 0.974
9 | TCGGACAATT | 1.08
10 | ACTGGTAAAC | 0.997
11 | GGTGTGCCAC | 0.98
12 | GCTGGTGGCC | 1.01
13 | TTAATTGTAC | 1.08
14 | GGTGGAATTG | 1.08
15 | GACTTCGACT | 1.01
16 | GCTCTCATTT | 0.994
17 | CAATAAGCCG | 1
18 | CAGTGGGCA | 0.964
19 | CAGCGGAATC | 1.72
20 | TCTTTGCCAG | 1.03
21 | GCCGGAATGG | 1.16
22 | TATAGGCAGC | 0.989
23 | AGACCAGAAG | 0.976
24 | GTATTTTAGA | 1.05
25 | CAGGAGCCTG | 0.975
26 | GCCAGCAGTG | 1.08

Row | Sequence | switch fluorescence ratio
27 | TGTTATGGGA | 0.98
28 | GAATTAGTAA | 0.957
29 | ACCCCGGATC | 1.15
30 | AACCCTGCAG | 1.09
31 | AAAGATAGAG | 1.03
32 | ACACAAGGCC | 0.997
33 | TGGGAGGTG | 1.05
34 | TATCGTACT | 1.11
35 | CGGGGGATAA | 0.995
36 | ACTCTGCA | 3.43
37 | GCGTTAATAT | 1.06
38 | GAGATCCCTA | 1.01
39 | ACTGTGATCT | 1.03
40 | ATCCGTGCTG | 1.02
41 | AGGCTACACG | 0.982
42 | ATCTCTATGG | 0.956
43 | CTCAAGAGTG | 1.01
44 | TTGGTATCCG | 1.05
45 | ACGAGGTAC | 1.19
46 | CGCGCTAACA | 1.02
47 | CTCCAGTTGG | 0.989
48 | GCTAAATTTA | 0.978
49 | CATGGGGCTC | 1
50 | GTTAAATTGA | 0.988
51 | CCAGTATTC | 0.994
52 | AATGCGTTAA | 1.01

Row | Sequence | switch fluorescence ratio
53 | GATAGACTGG | 1.02
54 | CGTCGGTACA | 1.02
55 | GAGACCGTCA | 0.969
56 | AATACAGTTT | 1.01
57 | TTCCGGTGGC | 1.09
58 | CGTGGAAGAG | 1.01
59 | GGGCAGGAGC | 0.993
60 | AGTACTGACA | 1.24
61 | CATCAACATG | 1.03
62 | CACCGATAGG | 1.03
63 | AACATTGTTG | 1
64 | ATATTCCAGT | 1
65 | CTAGCCGAGT | 1.02
66 | ACTCGGGCGA | 1.2
67 | GGATGAGGTA | 0.988
68 | TCTTCCACAG | 2
69 | TCCTACTATC | 1.16
70 | CTAAGAAT | 1
71 | ATCACGGCAC | 2.08
72 | CATGGGATTA | 0.963
73 | ATAATGTAAT | 1.01
74 | AGTTTGTAA | 1.02
75 | AGCGCATCCC | 1.2
76 | GTTAATCCAT | 0.982
77 | TGATATTTCC | 1.06
78 | ATAGTGGCGG | 0.974

Row | Sequence | switch fluorescence ratio
79 | TTGTGATTGG | 0.985
80 | GCAAATGGC | 1.03
81 | GGGCTCACT | 1
82 | TTTTTGCGG | 0.958
83 | CCTTACCAAT | 1.14
84 | TCCGGGACTG | 1.05
85 | AAACCTATTG | 1.03
86 | TCAGGCTGG | 0.966
87 | TTGAGCCTGA | 1.02
88 | TAATTGCATG | 1.01
89 | GTGTAGCTAA | 1.06
90 | TTTCCGTGCA | 0.971
91 | CCACCTACTG | 1.67
92 | CTATATAAAG | 0.989
93 | ACATGAATAG | 1.02
94 | TTGCGGTCGA | 1.01
95 | AAGATTGAGA | 0.976
96 | TCGACAGCGT | 1.04
97 | TCTGTACTTT | 1
98 | AACGTATTTC | 1.1
99 | TGGTCCGACT | 1.02
100 | CGGATCTGCC | 0.993
101 | GCCCCACGGC | 0.985
102 | GCAGCATGGG | 1.24
103 | TTCCAACACT | 1.69
104 | ACCCAACCGT | 1.17

Row | Sequence | switch fluorescence ratio
105 | CTGTAAGACA | 0.991
106 | GGATCTAGAC | 1.02
107 | CTAATCCCAC | 1
108 | AACGTCTAAC | 1.16
109 | AATTACCTTC | 1.49
110 | AGGCGCATCT | 0.989
111 | GATGTGTATG | 1
112 | ATCTCCTGCG | 1.18
113 | AGGTCCAGAT | 1.02
114 | AGGGACAGCT | 1.01
115 | TACTAATGCT | 0.996
116 | AAAAGGGGT | 1.04
117 | CGAATAAACA | 0.988
118 | TGTTTCTCAC | 1.83
119 | TCAGCGTTAG | 1.04
120 | TATAAGCGTC | 1.01
121 | ACGTCTTCGT | 0.971
122 | AAAGTTAGCC | 1.01
123 | TTTTCAACTG | 1.12
124 | TCCCCCAGTT | 2.97
125 | TTAGCCTACC | 1.32
126 | GCATCTTTCC | 1.25
127 | CGGTGAGGCC | 0.995
128 | CAACTTAGGT | 0.977
129 | TTAAATGCGA | 1.03
130 | CGTGTAGCGT | 0.991

Row | Sequence | switch fluorescence ratio
131 | CGTCAGTGC | 2.04
132 | ATGTGGCAGC | 0.951
133 | GCTAGACGTC | 0.985
134 | AGCCATGTGT | 1.03
135 | GGAATTGTTA | 0.997
136 | CCGAGGTCTC | 1.39
137 | GGACGGGACT | 1.14
138 | GGCTCGGTTT | 1.02
139 | CCCGCTTAGG | 1.12
140 | TGCCTCTGGT | 0.986
141 | GAGCCTATTG | 1
142 | TAATGCTTCT | 0.99
143 | TGTTAGAGTT | 1.03
144 | CCTTGTCTGG | 1.08
145 | CCTTGGGGGC | 1.03
146 | ACAAATGAAT | 1.19
147 | ATTCGAGGAA | 1.01
148 | GCTACAACGC | 1.12
149 | GCGGGGACTC | 1.07
150 | CACTCATGAG | 0.977
151 | CGAAAAAACT | 1.03
152 | ATATGGATCG | 0.937
153 | GAAAATTAAT | 1.04
